# Reference: the supplement of paper PMC8728848
# The other results are listed elsewhere or left out.
# B1: SSP1 (Sclerotinia sclerotiorum), XP_001584968 (protein)
# chain: MGSSHHHHHHSSGLVPRGSHMSLLTTELACTSAPDQVLHLFFQDGQNILEARSPDGGNVWTTQDTIIAKDGDYNGSSMTCYYVDKDANFDNQPSIHLLYMNKDKQLTEKVKRMKGDNPIWEDAKVPDEVRKGPEQYSKLTSGSFNQGTGWNPNGSQWAYFSASKDGKMGIVEIRRTPKDPWHTETILEEKWGDELPGTALACVIGNGKIRVFLQHHDYSIILYENQNNTWHDRGTFIPKDKVQATTPLACTMTKDGSVHLFYVSKSNKIIHCTDGKKEEELINFFPGSKLGATSVENKITLFFRNLNPVNEVGTLENENGSWKHGTTVIPA
# Experiments:
# Test in all cases: glycan array binding signal (z-score within array); higher = stronger binding
# Settings in all cases: glycan notation: IUPAC condensed, linker removed
# [1] = molecular target: GlcNAc(a1-6)Gal(b1-4)GlcNAc
# How it was run: (§1)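 Glycan array data were curated from 3228 arrays in the Consortium for Functional Glycomics database and kept only where the protein sequence was available. Glycan names were converted to IUPAC-condensed notation, and columns mapping to the same glycan were averaged. The binding signal is a within-array Z-score, averaged across arrays of the same protein sequence at different concentrations or buffers and across linkers. Negative Z-scores can be read as non-binding.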
# [2] = molecular target: GlcNAc(b1-2)Gal(b1-3)GalNAc
# How it was run: as §1
# [3] = molecular target: GlcNAc(b1-2)Man(a1-3)[GlcNAc(b1-2)Man(a1-6)]Man(b1-4)GlcNAc(b1-4)GlcNAc
# How it was run: as §1
# [4] = molecular target: GlcNAc(b1-2)Man(a1-3)[GlcNAc(b1-2)Man(a1-6)]Man(b1-4)GlcNAc(b1-4)[Fuc(a1-6)]GlcNAc
# How it was run: as §1
# [5] = molecular target: GlcNAc(b1-2)Man(a1-3)[GlcNAc(b1-4)][GlcNAc(b1-2)Man(a1-6)]Man(b1-4)GlcNAc(b1-4)GlcNAc
# How it was run: as §1
# [6] = molecular target: GlcNAc(b1-2)Man(a1-3)[GlcNAc(b1-4)][GlcNAc(b1-2)Man(a1-6)]Man(b1-4)GlcNAc(b1-4)[Fuc(a1-6)]GlcNAc
# How it was run: as §1
# [7] = molecular target: GlcNAc(b1-2)[GlcNAc(b1-4)]Man(a1-3)[GlcNAc(b1-2)Man(a1-6)]Man(b1-4)GlcNAc(b1-4)GlcNAc
# How it was run: as §1
# [8] = molecular target: GlcNAc(b1-2)[GlcNAc(b1-4)]Man(a1-3)[GlcNAc(b1-4)][GlcNAc(b1-2)Man(a1-6)]Man(b1-4)GlcNAc(b1-4)GlcNAc
# How it was run: as §1
# [9] = molecular target: GlcNAc(b1-2)[GlcNAc(b1-4)]Man(a1-3)[GlcNAc(b1-4)][GlcNAc(b1-2)[GlcNAc(b1-6)]Man(a1-6)]Man(b1-4)GlcNAc(b1-4)GlcNAc
# How it was run: as §1
# [10] = molecular target: GlcNAc(b1-2)[GlcNAc(b1-4)]Man(a1-3)[GlcNAc(b1-4)][GlcNAc(b1-2)[GlcNAc(b1-6)]Man(a1-6)]Man(b1-4)GlcNAc(b1-4)[Fuc(a1-6)]GlcNAc
# How it was run: as §1
# [11] = molecular target: GlcNAc(b1-2)[GlcNAc(b1-6)]Man(a1-6)[GlcNAc(b1-2)Man(a1-3)]Man(b1-4)GlcNAc(b1-4)GlcNAc
# How it was run: as §1
# [12] = molecular target: GlcNAc(b1-2)[GlcNAc(b1-6)]Man(a1-6)[GlcNAc(b1-2)Man(a1-3)]Man(b1-4)GlcNAc(b1-4)[Fuc(a1-6)]GlcNAc
# How it was run: as §1
# [13] = molecular target: GlcNAc(b1-2)[GlcNAc(b1-6)]Man(a1-6)[GlcNAc(b1-4)][GlcNAc(b1-2)Man(a1-3)]Man(b1-4)GlcNAc(b1-4)GlcNAc
# How it was run: as §1
# GlcNAc(b1-3)Fuc = molecular target: GlcNAc(b1-3)Fuc
# How it was run: as §1
# GlcNAc(b1-3)Gal = molecular target: GlcNAc(b1-3)Gal
# How it was run: as §1
# [14] = molecular target: GlcNAc(b1-3)Gal(b1-3)GalNAc
# How it was run: as §1
# GlcNAc(b1-3)Gal(b1-4)Glc = molecular target: GlcNAc(b1-3)Gal(b1-4)Glc
# How it was run: as §1
# [15] = molecular target: GlcNAc(b1-3)Gal(b1-4)GlcNAc
# How it was run: as §1
# [16] = molecular target: GlcNAc(b1-3)Gal(b1-4)GlcNAc(b1-2)Man(a1-3)[GlcNAc(b1-3)Gal(b1-4)GlcNAc(b1-2)Man(a1-6)]Man(b1-4)GlcNAc(b1-4)GlcNAc
# How it was run: as §1
# [17] = molecular target: GlcNAc(b1-3)Gal(b1-4)GlcNAc(b1-2)Man(a1-3)[GlcNAc(b1-3)Gal(b1-4)GlcNAc(b1-2)Man(a1-6)]Man(b1-4)GlcNAc(b1-4)[Fuc(a1-6)]GlcNAc
# How it was run: as §1
# [18] = molecular target: GlcNAc(b1-3)Gal(b1-4)GlcNAc(b1-2)[GlcNAc(b1-3)Gal(b1-4)GlcNAc(b1-6)]Man(a1-6)[GlcNAc(b1-3)Gal(b1-4)GlcNAc(b1-2)Man(a1-3)]Man(b1-4)GlcNAc(b1-4)GlcNAc
# How it was run: as §1
# [19] = molecular target: GlcNAc(b1-3)Gal(b1-4)GlcNAc(b1-3)Gal(b1-4)GlcNAc
# How it was run: as §1
binder,measurement,setting,value
B1,glycan array binding signal (z-score),[1],-0.03
same,glycan array binding signal (z-score),[2],-0.103
same,glycan array binding signal (z-score),[3],-0.388
same,glycan array binding signal (z-score),[4],-0.153
same,glycan array binding signal (z-score),[5],-0.449
same,glycan array binding signal (z-score),[6],-0.382
same,glycan array binding signal (z-score),[7],0.408
same,glycan array binding signal (z-score),[8],-0.169
same,glycan array binding signal (z-score),[9],-0.587
same,glycan array binding signal (z-score),[10],-0.262
same,glycan array binding signal (z-score),[11],-0.043
same,glycan array binding signal (z-score),[12],-0.388
same,glycan array binding signal (z-score),[13],-0.424
same,glycan array binding signal (z-score),GlcNAc(b1-3)Fuc,0.529
same,glycan array binding signal (z-score),GlcNAc(b1-3)Gal,-0.573
same,glycan array binding signal (z-score),[14],-0.121
same,glycan array binding signal (z-score),GlcNAc(b1-3)Gal(b1-4)Glc,-0.692
same,glycan array binding signal (z-score),[15],-0.127
same,glycan array binding signal (z-score),[16],-0.383
same,glycan array binding signal (z-score),[17],0.756
same,glycan array binding signal (z-score),[18],0.749
same,glycan array binding signal (z-score),[19],-0.652
